Results reported in patent US20230135471A1 (INTEGRATED DNA TECHNOLOGIES, published 2023).
Residue numbers refer to the chain shown, from its start. Numbers in names are those of the source.

B1: T7M (SM3) (designed binder)
Ubv: MHHHHHHGGSGMLIFVKMLTGKTITLEVEPSDTIENVKAKIQDKEGIPPDQQRLAFAGKSLEDGRTLSDYNILKDSKLHPLLRLR
B2: T12M (SM4) (designed binder)
Ubv: B1 Ubv with M18T, T23M
B3: E16M (SM6) (designed binder)
Ubv: B1 Ubv with M18T, E27M
B4: E18M (SM7) (designed binder)
Ubv: B1 Ubv with M18T, E29M
B5: N25V (SM8) (designed binder)
Ubv: B1 Ubv with M18T, N36V
B6: V26I (SM9) (designed binder)
Ubv: B1 Ubv with M18T, V37I
B7: Q31W (SM10) (designed binder)
Ubv: B1 Ubv with M18T, Q42W
B8: Q31C (SM11) (designed binder)
Ubv: B1 Ubv with M18T, Q42C
B9: Q31F (SM12) (designed binder)
Ubv: B1 Ubv with M18T, Q42F
B10: K33S (SM13) (designed binder)
Ubv: B1 Ubv with M18T, K44S
B11: K33H (SM14) (designed binder)
Ubv: B1 Ubv with M18T, K44H
B12: P38L (SM16) (designed binder)
Ubv: B1 Ubv with M18T, P49L
B13: R42W (SM17) (designed binder)
Ubv: B1 Ubv with M18T, R53W
B14: A44T (SM18) (designed binder)
Ubv: B1 Ubv with M18T, A55T
B15: K48T (SM20) (designed binder)
Ubv: B1 Ubv with M18T, K59T
B16: R54Y (SM21) (designed binder)
Ubv: B1 Ubv with M18T, R65Y
B17: S57G (SM22) (designed binder)
Ubv: B1 Ubv with M18T, S68G
B18: CM120 (designed binder)
Ubv: MHHHHHHGGSGMLIFVRMLTGKMIELEVMPSDTIEVVKAKIFDHEGIPLDQQHLAFQGTSLEDGYTLGDYNILKDPKKMPLLRLR
B19: CM121 (designed binder)
Ubv: B18 Ubv with F42Q, L49P
B20: P62V (CM458) (designed binder)
Ubv: MHHHHHHGGSGYMIFVRMLTGKMIELEVEPSDTIENIKAKIQDHEGIPLDQQRLTFQGKLLEDGRTLSDYNLVISPEKMAVLRMQ
B21: P62W (CM456) (designed binder)
Ubv: B20 Ubv with V73W
B22: P62Y (CM457) (designed binder)
Ubv: B20 Ubv with V73Y
B23: CM429 (CM476 + L69A), His-tagged (designed binder)
chain: B20 Ubv with V73P
B24: L69A+V70C (CM434) (designed binder)
Ubv: B20 Ubv with V73P, V81C
B25: L69A+V70F (CM433) (designed binder)
Ubv: B20 Ubv with V73P, V81F
B26: L69A+V70M (CM432) (designed binder)
Ubv: B20 Ubv with V73P, V81M
B27: L69C+V70C (CM462) (designed binder)
Ubv: B20 Ubv with V73P, A80C, V81C
B28: L69C+V70F (CM459) (designed binder)
Ubv: B20 Ubv with V73P, A80C, V81F
B29: L69C+V70M (CM438) (designed binder)
Ubv: B20 Ubv with V73P, A80C, V81M
B30: L69F+V70C (CM464) (designed binder)
Ubv: B20 Ubv with V73P, A80F, V81C
B31: L69F+V70F (CM461) (designed binder)
Ubv: B20 Ubv with V73P, A80F, V81F
B32: L69F+V70M (CM440) (designed binder)
Ubv: B20 Ubv with V73P, A80F, V81M
B33: L69G (CM430) (designed binder)
Ubv: B20 Ubv with V73P, A80G
B34: L69G+V70C (CM437) (designed binder)
Ubv: B20 Ubv with V73P, A80G, V81C
B35: L69G+V70F (CM436) (designed binder)
Ubv: B20 Ubv with V73P, A80G, V81F
B36: L69G+V70M (CM435) (designed binder)
Ubv: B20 Ubv with V73P, A80G, V81M
B37: L69M+V70C (CM463) (designed binder)
Ubv: B20 Ubv with V73P, A80M, V81C
B38: L69M+V70F (CM460) (designed binder)
Ubv: B20 Ubv with V73P, A80M, V81F
B39: L69M+V70M (CM439) (designed binder)
Ubv: B20 Ubv with V73P, A80M, V81M
B40: CM487, His-tagged (designed binder)
chain: B20 Ubv with M13I, V73T
B41: CM489, His-tagged (designed binder)
chain: B20 Ubv with M13L, V73T
B42: L2A (CM478) (designed binder)
Ubv: B20 Ubv with M13A, V73T
B43: L2D (CM481) (designed binder)
Ubv: B20 Ubv with M13D, V73T
B44: L2E (CM483) (designed binder)
Ubv: B20 Ubv with M13E, V73T
B45: L2F (CM490) (designed binder)
Ubv: B20 Ubv with M13F, V73T
B46: L2G (CM485) (designed binder)
Ubv: B20 Ubv with M13G, V73T
B47: L2H (CM486) (designed binder)
Ubv: B20 Ubv with M13H, V73T
B48: L2K (CM488) (designed binder)
Ubv: B20 Ubv with M13K, V73T
B49: L2N (CM480) (designed binder)
Ubv: B20 Ubv with M13N, V73T
B50: L2P (CM496) (designed binder)
Ubv: B20 Ubv with M13P, V73T
B51: L2R (CM479) (designed binder)
Ubv: B20 Ubv with M13R, V73T
B52: L2S (CM491) (designed binder)
Ubv: B20 Ubv with M13S, V73T
B53: L2T (CM492) (designed binder)
Ubv: B20 Ubv with M13T, V73T
B54: L2V (CM495) (designed binder)
Ubv: B20 Ubv with M13V, V73T
B55: L2W (CM493) (designed binder)
Ubv: B20 Ubv with M13W, V73T
B56: L2Y (CM494) (designed binder)
Ubv: B20 Ubv with M13Y, V73T

biological target: MBP tagged 53BP1 fragment (a.a. 1484-1603); experiment: BLI, fold change Ka of Ubv/Ka of i53

Binder | binding result
B1 | binds
B2 | binds
B3 | binds
B4 | binds
B5 | binds
B6 | binds
B7 | binds
B8 | binds
B9 | binds
B10 | binds
B11 | binds
B12 | binds
B13 | binds
B14 | binds
B15 | binds
B16 | binds
B17 | binds

biological target: MBP tagged 53BP1 fragment (a.a. 1484-1603); experiment: BLI, fold change Ka of Ubv/Ka of CM1

Binder | binding result
B18 | binds
B19 | binds

biological target: MBP tagged 53BP1 fragment (a.a. 1484-1603); experiment: BLI, fold change Ka of Ubv/Ka of CM429

Binder | binding result
B20 | binds
B21 | binds
B22 | binds

biological target: MBP tagged 53BP1 fragment (a.a. 1484-1603); experiment: BLI, KA (M-1), log axis; CM476 with the indicated mutation

Binder | binding result
B23 | binds
B24 | binds
B25 | binds
B26 | binds
B27 | binds
B28 | binds
B29 | binds
B30 | binds
B31 | binds
B32 | binds
B33 | binds
B34 | binds
B35 | binds
B36 | binds
B37 | binds
B38 | binds
B39 | binds

biological target: MBP tagged 53BP1 fragment (a.a. 1484-1603); experiment: BLI, fold change Ka of Ubv/Ka of CM489

Binder | binding result
B40 | binds
B41 | binds
B42 | binds
B43 | binds
B44 | binds
B45 | binds
B46 | binds
B47 | binds
B48 | binds
B49 | binds
B50 | binds
B51 | binds
B52 | binds
B53 | binds
B54 | binds
B55 | binds
B56 | binds
